# Source: the RNAGym collection of RNA variant scans (doi:10.7554/elife.90254)
# The source gives no read counts; variants with many changes may rest on few reads.
# B1: LINE1-mini (parent)
# chain: GGCAGAGCUCAACACAGCGUGGCAAAGUGGCUGUGGCUAGACUGCC
# Variants of: B1
# Test: self-cleavage, relative activity (ratio to wild type); higher = more cleavage; in vitro, sequencing; the parent is a self-cleaving ribozyme
row,Variant,self-cleavage
1,G2U G5C G7A C10U C13U A14C U32G G36A C42G,0.05
2,G2U C8A G22C,0.02
3,G2U C3G C23U C31U G40C A41C C42G U43G,0.01
4,G2U C10G G30A G33U U34A A41G C42A G44C,0
5,G2U C18A G19U U20C,0.04
6,G2U C15A C45U,0.03
7,G2U C23U U28A C37A C42G,0.03
8,G2U A14G G21U,0.1
9,G2U C13U A14C A26C,0.01
10,G2U A14G C15G G19A G22A G29U,0.02
11,G2U U32G U38A,0.03
12,G2U U20C G22C G33U,0
13,C3A A4G G5U,0.37
14,C3A A24U U32G,0.13
15,G2U A26U G40C C42U,0.01
16,G2U C8G G22A U38A,0.01
17,G2U C3G C8A C37U,0.13
18,C3A A6G A16U G29A G30U,0.01
19,G2U C3U G7U A12G C13G C45G,0.02
20,C3A A4U G5U G19U U32A G40A,0.01
21,C3A A4G C13U U20G G30A,0.04

row,Variant,self-cleavage
1,G2U C13A G19U U28G U43C C45U,0.01
2,G2U A11U A25C,0.03
3,G2U G30C G36U,0.07
4,G2U C3A A14U C23U C42A,0.25
5,G2U G5A G27U U38A,0.09
6,G2U C13A G17A C18A U20C G36U,0.06
7,G2U U9G C15G,0.02
8,G2U C23G G36A,0.02
9,G2U G21A G27U G44A,0.23
10,G2U C18U G22C A24C A26G G44U,0.03
11,C3A A11U A14G,0.05
12,G2U C15U A16C C45G,0.01
13,G2U C13G C18U A39C,0.03
14,G2U G17A C18G G19A,0
15,G2U U9G G21U C31U,0.01
16,G2U A26C G30A C37G A41U,0.01
17,G2U G7U C31G C37A,0.01
18,G2U C31A G36C C42U,0.02
19,G2U G33C C46U,0.03
20,G2U G5U C15G C37A,0.01
21,G2U C13A C42A,0.1

row,Variant,self-cleavage
1,G2U U9G C10G A14C U32A C42A,0
2,C3A A24U U43G,0.07
3,G2U C13U G17U,0.19
4,G2U C13G G19A,0.13
5,G2U C8U G17C G33C,0.01
6,G2U G19U G27A G30C,0.15
7,G2U C3U G29A,0.07
8,G2U G19U A39U,0.02
9,G2U A14C C23U A26U U43C G44U,0.01
10,G2U G5U G7A A11G C15U G40A C45U,0.02
11,C3A A12U A24G A25U,0.32
12,G2U C10U C31A A41U,0.01
13,G2U C8U A24C U43A C45A,0.05
14,G2U G5A A6G U9G G17U G30C,0.03
15,G2U C18G U20A G29C,0.03
16,G2U C8A A11U A16U A24G U32A G44U,0.01
17,G2U C15U U28A G29U U38A C46U,0.11
18,G2U C23G A26U C46U,0.01
19,G2U G19U A25C G44U,0.02
20,C3A A14G U32G G35C G36C C37G,0.02
21,G2U G35A U43A,0.05

row,Variant,self-cleavage
1,C3A A4U G7A U9C,0.01
2,G2U C10U C18A G22C A25C,0
3,C3A A4C G21C,0.05
4,G2U C3U G5U C18U A26U,0.05
5,G2U C31A C42G,0.02
6,G2U C10A A16G G27U,0.01
7,C3A A6U G29U G36U,0.4
8,G2U G30U C45U,0.03
9,G2U C10G A14U A24U C31A G36A G44A,0.01
10,C3A A6U G7U A25G G29A,0.03
11,G2U A25G G27U,0.05
12,C3A A14G G19C U34A,0.12
13,G2U A12G G17A G36A U38G,0.01
14,C3A A6U G7C G29A,0.02
15,G2U U9C C18A G40A,0.01
16,G2U A14U G40A,0.03
17,C3A A4U A16U,0.25
18,C3A A4C G19C C37G,0.01
19,G2U G5A A6G C45G,0.06
20,C3A A4G A26C G33U,0.04
21,G2U C3G C15G A24G C45U,0.01
